From PubChem BioAssay AID1347073 (National Center for Advancing Translational Sciences (NCATS), 2019)
In all, about 45,000 compounds went through this assay and about 200 (0.44%) were called active. Roughly 7% stayed inconclusive and do not appear here. Calls follow the shape of the dose curve; as a rule, active = well fitted activation curve with a large enough effect; inconclusive = small, poorly fitted or top-dose-only effect; inactive = no such curve, though single readings can be large or run the other way. This is one part of the list.

Assay: qHTS of TDP-43 Inhibitors: NCGC Sytravon Library Screen; also: 0% is about no effect; nearly all actives have a fitted effect of over 55% in size
Conditions: yeast TDP-43 toxicity rescue, BacTiter-Glo growth, 24 h; series mostly up to 46.1 µM; growth rescue (activation): at the top concentration
Description: The goal of this project is to identify new chemical probes capable of reversing the toxicity associated with TDP-43 which is associated with frontotemporal lobar degeneration and amyotrophic lateral sclerosis. These compounds will provide a complementary approach to deciphering the tangled mechanisms of toxicity and protection that we have uncovered through genome-wide genetic screens and are beginning to uncover in a large-scale proteomics analysis with mass spectroscopy. To this end, a miniaturized assay was developed to be screened against the Molecular Libraries Small Molecule Repository (MLSMR) to discover TDP-43 inhibitors. Please note that in the set-up this yeast-based assay compounds that inhibit as TDP-43, have a read-out as activators. NIH Chemical Genomics Center [NCGC] NIH Molecular Libraries Probe Centers Network [MLPCN] Assay Submitter (PI): Susan Lindquist, Whitehead Institute/MIT MLPCN Grant: R21 NS060957
Dispense 2.5 microL yeast galactose medium per 1536-well plate, pin compound, dispense 2.5 microL TDP-43 expressing yeast in galactose medium at OD600=0.02 (pregrown in raffinose medium to mid-log phase) per well, incubate for 24 hr at 30 deg C, and cell growth will be measured using 5 microL of Bactiter/Glo reagent to entire plate and read using Luminescence Protocol in ViewLux.

SMILES	growth rescue (activation)
COc1ccc(CN(C(=O)c2cccc(OC)c2)C2CCS(=O)(=O)C2)cc1 (stereo not drawn)	inactive: 2.53%
CN(Cc1ccccc1F)C(=O)CN1C(=O)NC2(CCc3ccccc32)C1=O (stereo not drawn)	inactive: 9.1%
CC(=O)Nc1cccc(C(=O)NNC(=O)c2ccc(-n3cnnn3)cc2)c1	inactive: 5.02%
CC(=O)NC1=NN(C(C)=O)C(C)(c2ccccn2)S1 (stereo not drawn)	inactive: -22.4%
COCCN1CN(S(=O)(=O)c2ccccc2)c2nc3ccccc3nc21	inactive: 10.4%
CN(C)CCN(Cc1cc2cc3c(cc2nc1Cl)OCO3)C(=O)c1ccco1	inactive: -4.41%
Cc1nn(CC(=O)OCC(=O)c2ccccc2)c(C)c1[N+](=O)[O-]	inactive: 16.3%
OC(CN1CCN(Cc2ccccc2)CC1)Cn1c2ccccc2c2ccccc21 (stereo not drawn)	inactive: 0.488%
CCOC(=O)N1CCN(C(=O)C2CCCN(c3ncnc4c3sc3cccc(F)c34)C2)CC1 (stereo not drawn)	inactive: 17.2%
CCN(CC)S(=O)(=O)c1cccc(C(=O)/C=C2/N(C)c3ccccc3C2(C)C)c1	inactive: -1.64%
O=C(CC1C(=O)NCCN1Cc1ccc(Cl)c(F)c1)NC1CCCCC1 (stereo not drawn)	inactive: 4.3%
O=C(O)c1nn2c(C(F)(F)F)cc(-c3cccs3)nc2c1Cl	inactive: 11.8%
CC(C)OC(=O)/C(C#N)=C/c1cn(Cc2ccccc2)c2ccccc12	inactive: 14.4%
COc1ccc(/C=C(\C#N)C(=O)Nc2ccccn2)cc1	inactive: 0.592%
C=CCOc1c(Br)cc(CNc2ccc(NC(=O)C(C)C)c(OC)c2)cc1OCC	inactive: 16.9%
COc1ccc(OCC(=O)N2CCN(C(=O)c3cc(OC)c(OC)c(OC)c3)CC2)cc1	inactive: -2.79%
CCS(=O)(=O)N1Cc2ccccc2CC1C(=O)Nc1ccc(F)c(F)c1 (stereo not drawn)	inactive: -0.645%
CCCn1c(N)c(N2CCCCC2)c(=O)n(CC(=O)Nc2ccccc2C(F)(F)F)c1=O	inactive: -6.51%
CC1CCCC(C)N1C(=O)COC(=O)CCC(=O)c1cccs1 (stereo not drawn)	inactive: 5.49%
Cc1ccc(NC(=O)C2c3ccccc3Oc3ccccc32)nc1	inactive: -5.54%
Cc1csc(SC(C)C(=O)Nc2ccc(F)cc2Cl)n1 (stereo not drawn)	inactive: 35.4%
O=c1[nH]c(=O)n(Cc2ccccc2)c2nc(-c3ccc(Oc4ccc(F)cc4)c([N+](=O)[O-])c3)n(CCO)c12	inactive: 13.3%
CCS(=O)(=O)C1=NSC2=NC(=O)/C(=C\c3ccc(OS(=O)(=O)c4ccccc4)cc3)C(=N)N21	inactive: 3.43%
Cc1ccc(CNC(=O)CN(c2cccc([N+](=O)[O-])c2)S(=O)(=O)c2ccccc2)cc1	inactive: 17.5%
CCCCn1c(=N)n(CC(O)c2ccccc2)c2ccccc21 (stereo not drawn)	inactive: -2.61%
Cc1cccc(NC(=O)CSc2nnc(N)s2)c1	inactive: -2.95%
NS(=O)(=O)c1ccc(N/N=C/c2ccccn2)c([N+](=O)[O-])c1	inactive: -1.36%
COc1ccc2[nH]c(C(=O)N3CCN(C)CC3)c(C)c2c1	inactive: -6.33%
